{"source": "PubChem BioAssay AID624296", "about": "(National Center for Advancing Translational Sciences (NCATS), 2012)", "note": "About 9,900 (2.8%) of roughly 350,000 compounds were called active. Inconclusive means that the source gave no clear call. Such entries were picked first, then a sample of the others. Calls follow the shape of the dose curve; as a rule, active = well fitted activation curve with a large enough effect; inconclusive = small, poorly fitted or top-dose-only effect; inactive = no such curve, though single readings can be large or run the other way. No potency is given beside an inconclusive call; the fits are too rough. Potency is read from the fitted curve at half-maximal effect; tags tell the direction and shape of the fitted curve.", "data": [{"experiment": "A quantitative high throughput screen for small molecules that induce DNA re-replication in MCF 10a normal breast cells; also: nearly all actives have a fitted effect of over 50% in size; as to activity, positive = re-replication: % of control where 0% means no effect.", "conditions": "MCF 10A DNA re-replication, Hoechst nuclear intensity, 48 h; activity, positive = re-replication: at 46.1 µM (top of the series)", "values": [{"smiles": "CC(C)(C)n1nnnc1C(c1cccc(C#N)c1)N1CCN2CCCC2C1", "note": "(centres undefined)", "Potency": "inactive"}, {"smiles": "C=CCSc1nc(-c2ccccc2)c2cc(Cl)ccc2n1", "Potency": "inconclusive [activator, single point]"}, {"smiles": "O=C(CC1CCCCC1)N1CCN(c2ccccn2)CC1", "Potency": "inactive"}, {"smiles": "CC1(C)OC(=CC=Nc2ccc(Cl)cc2)OC1(C)C", "Potency": "inconclusive [activator, single point]"}, {"smiles": "COc1ccc(CCNC(=S)Nc2cccc3ccccc23)cc1", "Potency": "inconclusive [activator, single point]"}, {"smiles": "CC(C)c1ccc(NC(=O)C2CCC(CNC(=O)[C@@H]3Cc4ccccc4CN3)CC2)cc1", "note": "(some centres undefined)", "Potency": "active: 14.6 µM"}, {"smiles": "COc1ccc(C)cc1NC(=O)C(=O)N1CCCC1", "Potency": "inconclusive [activator, single point]"}, {"smiles": "c1ccc(Nc2nc(N3CCOCC3)c3ccccc3n2)cc1", "Potency": "inconclusive [activator, single point]"}, {"smiles": "Cc1cccc(C(=O)NCC(=O)NCC(c2cccs2)N2CCOCC2)c1", "note": "(centres undefined)", "Potency": "inactive"}, {"smiles": "COc1ccc(Cl)c(Cn2c(NCCCN(C)C)nc3c2c(=O)n(C)c(=O)n3C)c1", "Potency": "inactive"}, {"smiles": "CCN1CCN(S(=O)(=O)c2ccc(Cl)c(C(=O)N(C)Cc3cccc(Cl)c3Cl)c2)CC1", "Potency": "inconclusive [activator, partial curve, poor fit]"}, {"smiles": "Oc1ccc2ccccc2c1CNc1ccccn1", "Potency": "inactive"}, {"smiles": "COc1ccc(S(=O)(=O)N(C(=O)C(C)C)c2ccc3oc(=O)sc3c2)cc1", "Potency": "inconclusive [activator, single point]"}, {"smiles": "O=C(c1cccc(F)c1)N1CCN(Cc2c[nH]c3ccccc23)CC1", "Potency": "inactive"}, {"smiles": "COc1cc(/C=N/N(c2ccccc2)c2ccccc2)ccc1O", "Potency": "inconclusive [activator, single point]"}, {"smiles": "O=C(/C=C/c1c(Cl)cccc1Cl)N1CCN(c2ncccn2)CC1", "Potency": "inconclusive [activator, single point]"}, {"smiles": "CCn1c(SCc2nc3ccccc3c(=O)[nH]2)nc2ccccc2c1=O", "Potency": "inactive"}, {"smiles": "CC(=O)c1cccc(NS(=O)(=O)c2ccc3c(c2)N(C(C)=O)CCO3)c1", "Potency": "inconclusive [activator, single point]"}, {"smiles": "COc1cc(/C=N/NC(=O)c2sc(N)c(C#N)c2C)ccc1O", "Potency": "inconclusive [activator, single point]"}, {"smiles": "O=C(CSc1nc(Nc2ccccc2)nc(N2CCOCC2)n1)Nc1ccc([N+](=O)[O-])cc1", "Potency": "inconclusive [activator, full curve, poor fit]"}, {"smiles": "CC[C@@H]1CC=C[C@H]2[C@H]1C(=O)N(Cc1ccccc1)[C@H]2c1ccc(OC)c(Cl)c1", "Potency": "inconclusive [activator, partial curve, poor fit]"}, {"smiles": "C=Cc1ncc(OC)c2c1[nH]c1ccccc12", "Potency": "inconclusive [activator, single point]"}, {"smiles": "CCOC(=O)C(=O)NCC(c1cccs1)S(=O)(=O)c1ccc(C)cc1", "note": "(centres undefined)", "Potency": "inactive"}, {"smiles": "O=C(N[C@@H](Cc1ccccc1)C(=O)OCc1ccccc1)c1nc[nH]c1C(=O)NC(c1ccccc1)c1ccccc1", "Potency": "inconclusive [activator, full curve, poor fit]"}, {"smiles": "CC(C)(C)c1nnc(NC(=O)c2cccnc2)s1", "Potency": "inconclusive [activator, full curve, poor fit]"}, {"smiles": "O=C(N/N=C/c1ccc(N2CCCCC2)o1)c1ccccc1", "Potency": "active: 23.1 µM"}, {"smiles": "Cc1sc2ncn(CC(=O)N3CCN(c4ccc(F)cc4)CC3)c(=O)c2c1S(=O)(=O)N1CCOCC1", "Potency": "inactive"}, {"smiles": "Cc1onc(NC(=O)c2ccc([N+](=O)[O-])o2)c1Br", "Potency": "inconclusive [activator, single point]"}, {"smiles": "CCN1C(=O)[C@H]2[C@@H](c3ccc(-c4ccc5c(c4)OCO5)c(OC)c3)N[C@@](Cc3ccccc3)(C(=O)OC)[C@H]2C1=O", "Potency": "inconclusive [activator, single point]"}, {"smiles": "N#Cc1cn(Cc2cccc(Cl)c2)c2ccccc12", "Potency": "inconclusive [activator, single point]"}, {"smiles": "CCC(O)(c1ccc(OC)cc1)C(CN1CCOCC1)c1ccccc1", "note": "(centres undefined)", "Potency": "inconclusive [activator, single point]"}, {"smiles": "O=C1NC(=O)c2cc(Br)cc3cccc1c23", "Potency": "inactive"}, {"smiles": "COc1ccc2nc(N3CCCCC3)c(/C=C3\\SC(=S)NC3=O)cc2c1", "Potency": "inconclusive [activator, full curve, poor fit]"}, {"smiles": "CCOc1ccc(NCC(=O)Nc2ccc(Cl)cc2C)cc1", "Potency": "inconclusive [activator, partial curve, poor fit]"}, {"smiles": "O=C(CNC(=O)c1ccc(Cl)cc1)OCc1nc2ccccc2s1", "Potency": "inconclusive [activator, partial curve, poor fit]"}, {"smiles": "Cc1cccc(NC(=S)N(CCN(C)C)Cc2cc3cc(C)cc(C)c3[nH]c2=O)c1", "Potency": "inactive"}, {"smiles": "CSC(=S)NN=C(C)c1cccc(C)n1", "Potency": "inconclusive [activator, single point]"}, {"smiles": "O=C(Nc1nc(-c2ccccn2)cs1)c1ccccc1-n1cnnn1", "Potency": "inconclusive [activator, partial curve, poor fit]"}, {"smiles": "O=C(O)CN=CC1=C(O)CC(c2ccccc2)CC1=O", "note": "(centres undefined)", "Potency": "inactive"}, {"smiles": "Cc1ccc(C2=NN(S(=O)(=O)c3ccccc3)C(c3ccco3)C2)cc1", "note": "(centres undefined)", "Potency": "inactive"}, {"smiles": "O=C(NNC(=O)c1ccccc1F)c1ccc(NS(=O)(=O)c2ccc(F)cc2)cc1", "Potency": "inactive"}, {"smiles": "O=C(Cn1nc(CNc2ccc(Br)cc2)[n+]2c1CCCCC2)c1ccc([N+](=O)[O-])cc1", "Potency": "inactive"}, {"smiles": "CCN(CC)Cc1ccccc1CNC(=O)c1cccc(S(=O)(=O)Nc2ccc3c(c2)OCO3)c1", "Potency": "inconclusive [activator, single point]"}, {"smiles": "Nc1nc2nc(-c3ccc(OCc4ccccc4)cc3)cc(C(F)(F)F)n2n1", "Potency": "inconclusive [activator, full curve, poor fit]"}, {"smiles": "COc1cc(CC(=O)N(C)CC(=O)Nc2ccc(Cl)c(C(F)(F)F)c2)cc(OC)c1OC", "Potency": "inconclusive [activator, single point]"}, {"smiles": "CS/C(=C\\[N+](=O)[O-])Nc1ccc(OC(F)(F)F)cc1", "Potency": "inconclusive [activator, single point]"}, {"smiles": "COC(=O)CCS(=O)(=O)c1nc(-c2ccccc2)cc(C(F)(F)F)n1", "Potency": "active: 3.66 µM"}, {"smiles": "CSc1n[nH]c(-c2ccc(C(F)(F)F)cc2)n1", "Potency": "inactive"}, {"smiles": "C/C(=N\\NC(=O)c1cccc2ccccc12)c1ccccn1", "Potency": "inconclusive [activator, full curve, poor fit]"}, {"smiles": "O=C(c1ccc(-c2nc3ccccc3s2)s1)N1CCOCC1", "Potency": "inconclusive [activator, single point]"}, {"smiles": "COC(C[C@H](O)CC(=O)COCc1ccccc1)OC", "Potency": "inconclusive [activator, partial curve, poor fit]"}, {"smiles": "Cc1cccc(NC(=O)CN2C(=O)N/C(=C\\c3ccc(-c4cccc(C(=O)O)c4)o3)C2=O)c1", "Potency": "active: 16.4 µM"}, {"smiles": "CCOc1ccccc1Nc1ccnc2cc(Cl)ccc12", "Potency": "inconclusive [activator, partial curve]"}, {"smiles": "O=C1NC(c2ccccc2)=C(c2nc3ccccc3s2)C(c2ccc(F)cc2)N1", "note": "(centres undefined)", "Potency": "inconclusive [activator, single point]"}, {"smiles": "COc1cc(/C=N/Nc2nc(-c3ccc(S(=O)(=O)N(C)C)cc3)cs2)ccc1O", "Potency": "inconclusive [activator, partial curve, poor fit]"}, {"smiles": "COc1ccccc1C1(CCNS(=O)(=O)c2ccc(C)cc2)CCOC(C(C)C)C1", "note": "(centres undefined)", "Potency": "inconclusive [activator, partial curve, poor fit]"}, {"smiles": "CCOc1nc(-c2ccccc2)ccc1-c1noc(-c2cccs2)n1", "Potency": "inconclusive [activator, single point]"}, {"smiles": "Cc1ccccc1CN1CCN(CC2CC3C=CC2C3)CC1", "note": "(centres undefined)", "Potency": "inconclusive [activator, partial curve, poor fit]"}, {"smiles": "Cn1c(C=O)c(C#CC(C)(C)O)c2ccccc21", "Potency": "inactive"}, {"smiles": "CCOCC(=O)NC1CCc2cc(OC(=O)COCC)c(OC)c(OC)c2-c2ccc(SC)c(=O)cc21", "note": "(centres undefined)", "activity, positive = re-replication": "inconclusive: 71.6% [activator]"}, {"smiles": "Cc1cccc(NC(=O)/C(C#N)=C/c2cn(CC(=O)NCc3ccco3)c3ccccc23)c1", "Potency": "active: 8.2 µM"}, {"smiles": "CC(O)CNc1nc2c(c(=O)n(C)c(=O)n2C)n1Cc1cccc(Br)c1", "note": "(centres undefined)", "Potency": "inconclusive [activator, full curve, poor fit]"}, {"smiles": "O=C(CN1C(=O)NC2(CCCC2)C1=O)OCCOc1ccccc1", "Potency": "inactive"}, {"smiles": "Cc1cc(N2C(=O)C(O)=C(C(=O)c3cc4ccccc4o3)C2c2cccc(Br)c2)no1", "note": "(centres undefined)", "Potency": "active: 18.4 µM"}, {"smiles": "CCCn1c2ccccc2c2cnn(CC(=O)NCCOC)c(=O)c21", "Potency": "inactive"}, {"smiles": "Cc1nc(/N=C(\\N)NC(=O)c2ccccc2)nc2ccccc12", "Potency": "inactive"}, {"smiles": "CC(=O)c1ccc(OCC(O)CN2CCN(S(=O)(=O)c3c(C)c(C)cc(C)c3C)CC2)cc1", "note": "(centres undefined)", "Potency": "inconclusive [activator, single point]"}, {"smiles": "COc1ccccc1N=C1NC(=O)/C(=C/c2ccc(N(C)C)cc2)S1", "Potency": "active: 9.2 µM"}, {"smiles": "CCN(CC)CCNC(=O)c1ccc(NC(=O)c2cccc(S(=O)(=O)Nc3ccc(C)cc3)c2)cc1", "Potency": "inconclusive [activator, single point]"}]}]}
